Measurements as given in patent US8273701B2, “Method for diagnosing non-small cell lung carcinoma” (Trustees of Dartmouth College, priority 2005, dated 2012).
At least one read-out could not be matched to a standard name with certainty.

Test system: Hedgehog signaling (Gli-luciferase reporter construct, Shh-Light2 cells)
Assay: Gli-luciferase reporter assay in Shh-Light2 cells
Type: cell-based
[1] = Concentration (M) −6, 24 hour co-treatment with Shh-conditioned media, normalized to Renilla, controls = DMSO and conditioned media
[2] = Concentration (M) −7, 24 hour co-treatment with Shh-conditioned media, normalized to Renilla, controls = DMSO and conditioned media
[3] = Concentration (M) −8, 24 hour co-treatment with Shh-conditioned media, normalized to Renilla, controls = DMSO and conditioned media
[4] = Concentration (M) −9, 24 hour co-treatment with Shh-conditioned media, normalized to Renilla, controls = DMSO and conditioned media
[5] = Table 5, NSC668332 and derivatives, Concentration (M) −6, same assay conditions
[6] = Table 5, NSC668332 and derivatives, Concentration (M) −6.3, same assay conditions
[7] = Table 5, NSC668332 and derivatives, Concentration (M) −7, same assay conditions
[8] = Table 5, NSC668332 and derivatives, Concentration (M) −8, same assay conditions

Row | SMILES | Luciferase activity as percentage of controls [1] | Luciferase activity as percentage of controls [2] | Luciferase activity as percentage of controls [3] | Luciferase activity as percentage of controls [4] | Luciferase activity as percentage of controls [5] | Luciferase activity as percentage of controls [6] | Luciferase activity as percentage of controls [7] | Luciferase activity as percentage of controls [8]
1 | N=C(N)c1ccc(N=Nc2c(O)ccc3cc4c(N=Nc5ccc(C(=N)N)cc5)c(O)ccc4cc23)cc1 [NSC359464] | 79 percentage of controls | 72 percentage of controls | 77 percentage of controls | 86 percentage of controls |  |  |  | 
2 | COc1ccc2ccc3cccnc3c2n1 [NSC608429] | 101 percentage of controls | 78 percentage of controls | 74 percentage of controls | 85 percentage of controls |  |  |  | 
3 | Cc1ccccc1NC(=S)NN=C(c1ccccc1)c1ccccn1 [NSC668326] |  |  |  |  | 9 percentage of controls | 28 percentage of controls | 67 percentage of controls | 93 percentage of controls
4 | Cc1ccc(NC(=S)NN=C(c2ccccc2)c2ccccn2)cc1 [NSC668328] |  |  |  |  | 10 percentage of controls | 25 percentage of controls | 72 percentage of controls | 106 percentage of controls
5 | CC(=NNC(=S)Nc1ccccc1C)c1ccccn1 [NSC668332] | 33 percentage of controls | 75 percentage of controls | 100 percentage of controls | 108 percentage of controls | 33 percentage of controls | 35 percentage of controls | 75 percentage of controls | 100 percentage of controls
6 | CC(=NNC(=S)Nc1ccccc1Cl)c1ccccn1 [NSC668333] |  |  |  |  | 34 percentage of controls | 26 percentage of controls | 79 percentage of controls | 117 percentage of controls
7 | CC(=NNC(=S)Nc1ccc(C)cc1)c1ccccn1 [NSC668334] |  |  |  |  | 47 percentage of controls | 54 percentage of controls | 66 percentage of controls | 107 percentage of controls
8 | CC(=NNC(=S)Nc1cccc(C)c1)c1ccccn1 [NSC668336] |  |  |  |  | 32 percentage of controls | 32 percentage of controls | 66 percentage of controls | 96 percentage of controls
9 | Cc1cc(N(CCC#N)CCC#N)ccc1C(N=Nc1cccc(Cl)c1)=NNC(=O)c1cc(Cl)ccc1O [NSC685926] | 85 percentage of controls | 89 percentage of controls | 94 percentage of controls | 86 percentage of controls |  |  |  | 
